Data taken from patent US8962670B2, “Anti-cancer agents” (UWM Research Foundation, Inc., priority 2011, dated 2015).

What was measured:
49 mer DNA duplex 292 = test: DNA ICL formation with/without H2O2, denaturing PAGE (Example 15); details: in the presence of H2O2
Absorbance at 350 nm = type: physicochemical; details: 0.023 mM
Description: DNA duplexes 6-13 were photo-irradiated at 350 nm using a Rayonet Photochemical Chamber Reactor (Model RPR-100). A wavelength of 350 nm was chosen because near-UV light (>300 nm) is not/slightly absorbed by most biological molecules and is compatible with living cells. Both compounds have absorbance at 350 nm (A=0.08 for 0.023 mM 53a and A=0.19 for 0.023 mM 53b. Furthermore, the nitroimidazole derivatives can be excited by 350 nm to form a radical anion transition state.

CC1(C)OB(c2ccc(-c3ccc(B4OC(C)(C)C(C)(C)O4)c(C[N+](C)(C)C)c3)cc2C[N+](C)(C)C)OC1(C)C [Compound 47, 3,3′-Di(trimethyl)-[4,4′-di(4,4,5,5-tetramethyl-[1,3,2]dioxaborolan-2-yl)-biphenyl]-ammonium bromide]
ICL formation (49 mer DNA duplex 292): no ICL was observed

CC1(C)OB(c2cc(C[N+](C)(C)C)c(B3OC(C)(C)C(C)(C)O3)cc2C[N+](C)(C)C)OC1(C)C [Compound 48, 1,4-Di-trimethyl-[2,5-di(4′,4′,5′,5′-tetramethyl-[1′,3′,2′]dioxaborolan-2′-yl)-benzyl]-ammonium bromide]
ICL formation (49 mer DNA duplex 292): efficiently induce the ICL formation

O=c1[nH]c(=O)n([C@H]2C[C@H](O)[C@@H](CO)O2)cc1Cn1cnc([N+](=O)[O-])c1 [Compound 53a, 5-(4-nitro-1H-imidazol-1-yl)methyl-2′-deoxythymidine]
absorbance at 350 nm (A) (Absorbance at 350 nm): 0.08
